# Measured values: PubChem BioAssay AID588855 (National Center for Advancing Translational Sciences (NCATS), 2011)
# The campaign covered roughly 410,000 compounds. About 5,000 (1.2%) were called active. The shares of active, inactive and inconclusive entries below differ from those in the screen. Calls come from the whole dose curve; as a rule, active = well fitted inhibition curve with a large enough effect; inconclusive = small, poorly fitted or top-dose-only effect; inactive = no such curve, though single readings can be large or run the other way. Where the call is inconclusive, the potency comes from a doubtful curve fit.
# Experiment: qHTS for Inhibitors of TGF-b; note: nearly all actives have a fitted effect of over 65% in size
# Conditions: HepG2 CAGA-GFP TGF-b/SMAD3 reporter, GFP fluorescence, 18 h, TGF-beta stimulated, 500 pg/mL final; series mostly up to 46.1 µM; activity, negative = inhibition: at the top concentration
# How it was run: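 Inhibition of TGF-beta-driven CAGA-GFP reporter expression in HEPG2 cells is measured by cellular GFP fluorescence after 18 h stimulation with 500 pg/mL recombinant TGF-beta in 1% FBS medium at 37 degrees C.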
# % is set by controls: 0 for no effect and ±100 for the full control effect; potency is the fitted concentration of half-maximal effect; tags give direction and shape of the fitted curve.
SMILES,Potency,"activity, negative = inhibition"
Cc1ccc(C)c(S(=O)(=O)Nc2ccc3c(c2)CCCN3C(=O)c2cccs2)c1,active: 11.2 µM,–
Cc1cc(C)n(CCOC(=O)C2C(C=C(Cl)Cl)C2(C)C)n1 (configuration not stated),"inconclusive: 35.5 µM [inhibitor, single point]",–
O=C(COc1ccc(Br)cc1)N1CCN(C2CCCC2)CC1,–,inactive: 0.927%
Cc1ccc(C)c(CN2CCC(n3nnc4cc(F)ccc43)CC2)c1,–,inactive: -15.1%
O=C(CSc1nc(-c2ccc(Cl)cc2)[nH]c(=O)n1)Nc1cccc(Cl)c1,"inconclusive: 35.5 µM [inhibitor, single point]",–
O=C(NCc1ccc(Cl)cc1)C1CCN(C(=O)c2cnn(-c3ccccc3)c2-n2cccc2)CC1,"inconclusive: 12.6 µM [inhibitor, partial curve, poor fit]",–
COC(=O)C1=C(c2ccc(F)cc2F)C[C@@H]2CC[C@H]1N2C(=O)NCc1ccc(C(F)(F)F)cc1,"inconclusive: 35.5 µM [inhibitor, partial curve, poor fit]",–
Cc1cccc(N=Cc2c(O)n(-c3ccccc3C)c(=O)[nH]c2=O)c1,–,inactive: -5.13%
COc1ccc2nc(N3CCN(C(=O)CS(=O)(=O)c4ccc(C)cc4)CC3)sc2c1,"inconclusive: 7.94 µM [inhibitor, partial curve]",–
COc1ccccc1C(=O)C1CCCN(Cc2cnc(C)s2)C1 (configuration not stated),–,inactive: 18.6%
O=C(COc1ccc(Cl)cc1)N1CCN(C2CCCC2)CC1,"inconclusive: 35.5 µM [inhibitor, partial curve, poor fit]",–
CC(C)OC(=O)Cc1ccccc1,–,inactive: 8.87%
CCOC(=O)c1ccc(N2C(=O)c3[nH]nc(-c4ccccc4)c3C2c2ccc(C(C)C)cc2)cc1 (configuration not stated),"inconclusive: 35.5 µM [inhibitor, single point]",–
Cc1ccc(NP(=O)(Oc2ccccc2F)Oc2ccccc2F)cc1,"inconclusive: 35.5 µM [inhibitor, single point]",–
Cc1ccc(NC(=O)C2CCN(C(=O)c3cnn(-c4ccccc4)c3-n3cccc3)CC2)cc1Cl,active: 14.1 µM,–
O=c1cccc2n1CC1CC2CN(C(c2ccccc2)c2sc3ncnn3c2O)C1 (configuration not stated),–,inactive: -11.8%
O=C(COc1ccc(Cl)cc1)N(c1ccccc1Cl)C1CN2CCC1CC2 (configuration not stated),"inconclusive: 25.1 µM [inhibitor, single point]",–
CCCC(C)c1nnc(NC(=O)CCS(=O)(=O)c2ccccc2)s1 (configuration not stated),"inconclusive: 35.5 µM [inhibitor, partial curve, poor fit]",–
O=C(N/N=C/c1c(O)n(-c2ccccc2)c(=S)[nH]c1=O)c1ccccc1,–,inactive: 2.27%
Cn1c(O)c(C2=NN(C(=O)CCl)C(c3ccccc3)C2)c(=O)n(C)c1=O (configuration not stated),–,inactive: -14.1%
COC1C(O)C(C)OC(OC2CCC3(C=O)C(CCC4C3CCC3(C)C(C5=CC(=O)OC5)CCC43O)C2)C1O (configuration not stated),active: 0.355 µM,–
C[C@@H]1O[C@@H](O[C@@H]2C=C3CCC4C(CC[C@]5(C)[C@@H](c6ccc(=O)oc6)CC[C@]45O)[C@@]3(C)CC2)[C@H](O)[C@H](O)[C@H]1O (some centres not stated),–,inactive: -97.8%
N#Cc1c(Cl)c(Cl)c(Cl)c(C#N)c1Cl,active: 0.251 µM,–

SMILES,Potency,"activity, negative = inhibition"
COC(=O)C1=C(c2cccc(OCc3ccccc3)c2)C[C@@H]2CC[C@H]1N2C(=O)NCc1ccccc1,"inconclusive: 35.5 µM [inhibitor, single point]",–
CCc1ccc(NP(=O)(Oc2ccccc2F)Oc2ccccc2F)cc1,active: 17.8 µM,–
CC12CC[C@H]3[C@@H](CCC4(O)C[C@H](O)CCC34/C=N/NC(=O)c3ccc(O)cc3)C1(O)CCC2C1=CC(=O)OC1 (some centres not stated),–,inactive: 13.9%
Cc1ccc(-n2c(=S)[nH]c3ccccc3c2=O)cc1F,–,inactive: -8.48%
c1ccc2c(c1)OCC(C1=NCCN1)O2 (configuration not stated),"inconclusive: 17.8 µM [inhibitor, partial curve, poor fit]",–
CCOc1cccc(OCC)c2c(C)[n+](CC3CCCO3)c(C)c1-2 (configuration not stated),"inconclusive: 35.5 µM [inhibitor, single point]",–
CC(=O)c1ccc2c(c1)C1C(Cl)C(Sc3ccccc3[N+](=O)[O-])CC1C(C(=O)O)N2 (configuration not stated),–,inactive: -23.3%
CCCc1nnc(NC(=O)CCC(=O)N2CCN(CCOC(c3ccccc3)c3ccccc3)CC2)s1,"inconclusive: 35.5 µM [inhibitor, single point]",–
CC=C(CC)C1(CCC)C(=O)NC(=S)NC1=O,–,inactive: -5.92%
CC1CCC(C(C)C)C(OC(=O)COC(=O)c2ccccc2N)C1 (configuration not stated),"inconclusive: 35.5 µM [inhibitor, single point]",–
CN(C)c1ccc(-[n+]2c(-c3ccccc3)cc(-c3ccccc3)cc2-c2ccccc2)cc1,active: 3.98 µM,–
COc1ccc(CN(CCc2c[nH]c3ccccc23)Cc2ccc(OC)cc2)cc1,"inconclusive: 35.5 µM [inhibitor, single point]",–
Cc1c(C=O)c2ccccc2n1Cc1ccccc1F,active: 1.12 µM,–
COCCn1c(SCc2ccccc2Cl)nc2c1c(=O)[nH]c(=O)n2C,"inconclusive: 5.62 µM [inhibitor, single point]",–
CCN(Cc1ccccc1)S(=O)(=O)c1ccc2c(c1)CCCN2C(C)=O,"inconclusive: 20 µM [inhibitor, single point]",–
COC(=O)C1=C(c2ccc(Cl)c(C(F)(F)F)c2)C[C@@H]2CC[C@H]1N2C(=O)N1CCC(C)CC1,"inconclusive: 15.8 µM [inhibitor, single point]",–
Cc1ccc(C(C)C)c(OCC#CCN2CCCC2)c1,–,inactive: -2.62%
COC(=O)C(O)(c1c(C)[nH]n(-c2ccccc2)c1=O)C(F)(F)F (configuration not stated),"inconclusive: 0.112 µM [inhibitor, full curve, poor fit]",–
CC12CC[C@H]3[C@@H](CCC4(O)C[C@H](O)CCC34/C=N/NC(=O)c3ccccc3O)C1(O)CCC2C1=CC(=O)OC1 (some centres not stated),"inconclusive: 12.6 µM [inhibitor, partial curve, poor fit]",–
COc1c(C)cc(C(=O)C2CCCN(Cc3ccccn3)C2)cc1C (configuration not stated),"inconclusive: 35.5 µM [inhibitor, single point]",–
CN1c2ccc([N+](=O)[O-])cc2CC2(C(=O)NC(=O)NC2=O)C1c1ccccc1 (configuration not stated),–,inactive: -24.2%
COC(=O)C1=C(c2ccc3ccccc3c2)C[C@@H]2CC[C@H]1N2C(=O)N1CCCC1,"inconclusive: 22.4 µM [inhibitor, single point]",–
CCOc1ccc(CCNC(=O)c2cnc3sc(N4CCCC4)nn3c2=O)cc1,"inconclusive: 6.31 µM [inhibitor, single point]",–

SMILES,Potency,"activity, negative = inhibition"
Cc1[nH]n(-c2ccccc2)c(=O)c1C(c1cccc([N+](=O)[O-])c1O)c1c(C)[nH]n(-c2ccccc2)c1=O,"inconclusive: 22.4 µM [inhibitor, single point]",–
CCOc1ccc(NC(=O)c2c(O)[nH]c(=O)[nH]c2=O)cc1,"inconclusive: 10 µM [inhibitor, partial curve, poor fit]",–
C/C(=N\NC(=O)c1ccccc1)c1c(O)n(C2CCCCC2)c(=O)[nH]c1=O,–,inactive: -11.1%
COc1cc(C2Nc3c(C)cc(C)cc3-c3cc(C)nn32)cc(OC)c1O (configuration not stated),"inconclusive: 14.1 µM [inhibitor, single point]",–
Cc1ccccc1-n1nc(C)c2c1NC(=O)CSC2c1ccccc1C(F)(F)F (configuration not stated),"inconclusive: 25.1 µM [inhibitor, single point]",–
CCOc1ccccc1OCC(=O)Nc1ccc(Cl)cc1C(=O)c1ccccc1,"inconclusive: 35.5 µM [inhibitor, single point]",–
O=c1[nH]c(=O)n(Cc2ccccc2)c(O)c1C=NCCN1CCOCC1,–,inactive: -14.4%
N#Cc1cn(C2OC(CO)C(O)C2O)c2ncnc(N)c12 (configuration not stated),active: 0.1 µM,–
COc1ccccc1N1C(=O)NC(=O)/C(=C/c2ccc([N+](=O)[O-])s2)C1=O,"inconclusive: 35.5 µM [inhibitor, single point]",–
COc1cc2c(c(OC)c1OC)-c1ccc(OC)c(=O)cc1[C@@H](NC(C)=O)CC2,"inconclusive: 1.12 µM [inhibitor, full curve]",–
COC(=O)C1=C(c2ccc(Cl)c(C(F)(F)F)c2)C[C@@H]2CC[C@H]1N2C(=O)N1CCOCC1,"inconclusive: 25.1 µM [inhibitor, single point]",–
Cc1ccc(/C(CSc2nccn2-c2ncc(C(F)(F)F)cc2Cl)=N\O)cc1,"inconclusive: 7.08 µM [inhibitor, partial curve, poor fit]",–
COc1ccccc1OP(=O)(Nc1ccc(Br)cc1)Oc1ccccc1OC,active: 15.8 µM,–
CC(C)C1C(c2ccccc2)N(C)C(c2ccccc2)CC1(O)c1ccccc1 (configuration not stated),"inconclusive: 17.8 µM [inhibitor, single point]",–
O=C(O)Cn1cc(C(=O)c2ccccc2)c2ccccc21,"inconclusive: 35.5 µM [inhibitor, single point]",–
Cc1cc(C(=O)C[N+]23CCN(CC2)CC3)c(C)n1-c1ccc(Br)cc1,"inconclusive: 3.98 µM [inhibitor, partial curve, poor fit]",–
COC(=O)C1=C(c2ccc(Cl)c(C(F)(F)F)c2)C[C@@H]2CC[C@H]1N2C(=O)NCc1ccco1,"inconclusive: 7.08 µM [inhibitor, full curve]",–
COc1ccc(-n2nnnc2C(c2ccnc3ccccc23)N2CCC(n3c(=O)[nH]c4ccccc43)CC2)cc1 (configuration not stated),–,inactive: -35.1%
CN1CC2([N+](=O)[O-])CC=C(Cl)C([N+](=O)[O-])(C1)C2 (configuration not stated),–,inactive: 17.6%
O=C1NC(=O)C2(Cc3ccccc3N3CCOCC32)C(=O)N1c1ccccc1 (configuration not stated),–,inactive: -9.34%
S=c1[nH]nc(-c2ccco2)n1-c1cccc2ccccc12,"inconclusive: 5.01 µM [inhibitor, single point]",–
